Test results: the supplement of paper PMC12217912
The list shows a part of the results. The full chains were built here from the parent and the listed change. Values near 0.05 are background.

B1: TEV protease; numbered along this chain (parent)
chain: MGESLFKGPRDYNPISSSICHLTNESDGHTTSLYGIGFGPFIITNKHLFRRNNGTLVVQSLHGVFKVKDTTTLQQHLVDGRDMIIIRMPKDFPPFPQKLKFREPQREERICLVTTNFQTKSMSSMVSDTSCTFPSGDGIFWKHWIQTKDGQCGSPLVSTRDGFIVGIHSASNFTNTNNYFTSVPKNFMELLTNQEAQQWVSGWRLNADSVLWGGHKVFMVKPEEPFQPVKEATQL

Variants of: B1
Assay: raw area under fraction-flipped curve 0-4 h after induction (AUC4h, not background-subtracted), DNA-recorder readout of cleavage of the substrate (dimensionless); higher = more cleavage of the substrate by the protease variant
Details: temperature: 34 °C; time window: 0-4 h after rhamnose induction
Protocol: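 In vivo DNA recorder in E. coli TOP10(DE3) ΔrhaA at 34 °C. Each TEVp single-site mutant (parent TEVp 0) is paired with a single-site variant of the 7-mer TEVs (canonical ENLYFQ|S). The substrate sits between flexible linkers in a Bxb1-sfGFP-TEVs-SsrA fusion, so cleavage stabilises Bxb1 and speeds flipping of a recombination array, read by NGS. The value is the raw area under the fraction-flipped curve over 0-4 h after rhamnose induction (AUC4h), with ≥20 reads per time point. It is not background-subtracted; inactive controls average about 0.047.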
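Note: Bxb1 expression induced with 0.2% (w/v) L-rhamnose at OD600 near 0.5, cultures sampled hourly, flipped fraction per protease–substrate barcode pair counted by paired-end Illumina sequencing.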

Row | Variant | area with substrate ENLYFQA | area with substrate ENLYFQC | area with substrate ENLYFQD | area with substrate ENLYFQE | area with substrate ENLYFQG | area with substrate ENLYFQH | area with substrate ENLYFQI | area with substrate ENLYFQK | area with substrate ENLYFQL | area with substrate ENLYFQM | area with substrate ENLYFQN | area with substrate ENLYFQP | area with substrate ENLYFQR | area with substrate ENLYFQS | area with substrate ENLYFQT | area with substrate ENLYFQV | area with substrate ENLYFQW | area with substrate ENLYFQY | area with substrate ENLYFQF | area with substrate ENLYFQQ
1 | L77F | 0.064 | 0.0658 | 0.0582 | 0.0819 | 0.0567 | 0.0519 | 0.0566 | 0.0628 | 0.0655 | 0.0585 | 0.0643 | 0.056 | 0.0521 | 0.0694 | 0.0552 | 0.0719 | 0.0607 | 0.066 | – | –
2 | M88F | 0.0858 | 0.0445 | – | – | 0.0934 | 0.0612 | – | – | 0.0474 | 0.0625 | 0.0647 | – | 0.0537 | 0.0795 | – | 0.07 | – | – | 0.067 | 0.047
3 | M88V | 0.0952 | 0.0976 | – | 0.0491 | 0.103 | 0.0908 | 0.0639 | 0.0723 | 0.0632 | 0.0797 | 0.0677 | 0.0452 | 0.0807 | 0.104 | 0.065 | 0.044 | 0.0669 | 0.0637 | 0.0675 | 0.0796
4 | M88T | 0.115 | 0.0937 | – | – | – | – | – | – | 0.0674 | 0.0926 | 0.09 | – | 0.0497 | 0.093 | – | – | 0.0647 | – | 0.0738 | –
5 | M88R | 0.0483 | 0.0457 | – | – | 0.0435 | – | 0.0558 | – | 0.0254 | 0.0515 | 0.0456 | – | 0.0371 | 0.0543 | 0.0552 | 0.042 | – | 0.0516 | – | –
6 | P96H | 0.105 | 0.111 | 0.0754 | – | 0.123 | 0.0773 | – | 0.0541 | 0.0502 | 0.0812 | 0.0676 | – | 0.0712 | 0.0982 | 0.0824 | – | 0.0737 | 0.0831 | 0.0478 | 0.0749
7 | P96A | 0.0837 | 0.173 | 0.0564 | – | – | – | 0.0519 | 0.0761 | – | 0.0489 | – | – | 0.0264 | 0.107 | 0.0693 | – | 0.0625 | – | – | 0.0723
8 | P96W | 0.0966 | – | 0.0658 | – | 0.0781 | – | 0.0578 | – | 0.0709 | 0.0771 | – | – | 0.0555 | 0.0893 | – | – | – | – | – | –
9 | P96E | 0.0932 | 0.116 | – | – | – | 0.121 | – | 0.0463 | 0.0591 | 0.0818 | 0.0896 | 0.0636 | 0.0626 | 0.103 | 0.074 | 0.0588 | 0.0615 | 0.0649 | 0.0564 | –
10 | T55V | 0.14 | 0.0846 | 0.0768 | – | 0.087 | 0.086 | 0.0584 | 0.0492 | 0.0594 | 0.0865 | 0.0648 | – | 0.0594 | 0.103 | 0.0647 | 0.0631 | 0.0577 | 0.0891 | 0.067 | 0.074
11 | G63W | 0.112 | 0.0981 | 0.0649 | – | 0.0771 | – | 0.0875 | 0.0596 | 0.0648 | 0.0847 | 0.0497 | 0.0751 | 0.0597 | 0.0924 | 0.0495 | 0.0508 | 0.0557 | 0.0796 | 0.0732 | 0.0967
12 | M83F | 0.0737 | 0.0881 | – | – | 0.0777 | – | – | 0.0511 | 0.0691 | – | 0.0746 | 0.0643 | – | 0.0797 | – | – | – | 0.056 | – | 0.0757
13 | D69P | 0.0918 | 0.114 | 0.0636 | – | 0.0766 | 0.0607 | – | – | 0.0582 | 0.0615 | 0.0739 | 0.0523 | 0.0667 | 0.086 | 0.0617 | 0.0543 | 0.0529 | 0.0625 | 0.0453 | 0.044
14 | D69G | 0.0635 | – | 0.0653 | – | 0.0806 | – | 0.0534 | 0.0665 | 0.0621 | – | – | – | 0.0513 | 0.0829 | 0.0551 | 0.0438 | – | 0.0389 | – | –
15 | K98W | 0.107 | 0.0912 | – | – | – | – | 0.0573 | 0.0552 | 0.0667 | – | 0.108 | 0.0692 | 0.0582 | 0.104 | 0.0634 | 0.0724 | 0.0685 | 0.0627 | – | –
16 | T72Q | 0.101 | 0.144 | – | – | – | – | – | 0.0628 | 0.0457 | 0.0905 | 0.0684 | 0.0817 | 0.0543 | 0.104 | – | 0.0543 | – | 0.135 | – | –
17 | T72F | 0.0896 | 0.0837 | 0.0526 | 0.0575 | 0.07 | – | 0.0533 | – | 0.0614 | 0.0755 | 0.0663 | 0.0522 | 0.0544 | 0.0823 | 0.0362 | 0.0603 | 0.0611 | 0.0714 | 0.0736 | –
18 | T72K | 0.126 | 0.0254 | 0.075 | – | – | – | 0.0627 | 0.0736 | 0.0626 | 0.0897 | 0.0813 | – | 0.0526 | 0.106 | 0.0706 | 0.0777 | 0.0715 | 0.0791 | 0.0693 | 0.065
19 | S60T | 0.106 | 0.0877 | 0.0724 | 0.0691 | 0.0928 | 0.0889 | 0.0527 | 0.0597 | 0.0405 | 0.0977 | 0.0897 | – | 0.0697 | 0.101 | 0.0658 | – | 0.0683 | 0.0679 | 0.101 | –
20 | L61C | 0.113 | 0.103 | 0.0829 | 0.0715 | 0.0952 | – | 0.0571 | 0.0617 | 0.069 | 0.0849 | 0.131 | 0.0601 | 0.0573 | 0.103 | 0.0665 | 0.064 | 0.065 | 0.0753 | 0.0837 | 0.0591
21 | V64I | 0.0967 | 0.127 | 0.0869 | – | 0.0715 | – | – | – | 0.0596 | – | 0.0809 | – | 0.0412 | 0.1 | – | – | 0.0672 | – | 0.0739 | –
22 | V64D | 0.0897 | 0.136 | 0.069 | 0.0885 | 0.112 | – | 0.109 | 0.0609 | 0.0802 | 0.0537 | – | – | 0.0656 | 0.101 | 0.0718 | – | – | 0.0884 | – | 0.0688
23 | V64M | 0.0965 | 0.101 | 0.0645 | 0.0766 | 0.0963 | – | 0.0509 | 0.0608 | 0.0635 | 0.0886 | 0.0892 | 0.0545 | 0.0679 | 0.105 | 0.0779 | – | 0.0456 | 0.0852 | – | –
24 | V64Y | 0.112 | 0.116 | 0.0464 | – | 0.0948 | – | 0.0558 | – | 0.02 | 0.105 | 0.0849 | 0.0285 | 0.0679 | 0.107 | 0.0759 | – | 0.0622 | – | – | –
25 | V64G | 0.0474 | 0.105 | 0.0769 | – | – | 0.0641 | 0.0585 | – | 0.0677 | 0.0738 | 0.0688 | – | 0.0503 | 0.0966 | 0.0617 | – | – | – | – | –
